# This is one part of the list.
# Columns and labels:
# [1] = tested on: HSkMC (human skeletal muscle cells); assay: cytotoxicity call (relative viability < 0.9); details: 10 µM
# [2] = tested on: HepG2; assay: cytotoxicity call (relative viability < 0.9); details: 10 µM
# [3] = tested on: S. aureus RN4220; assay: growth inhibition call (relative growth <= 0.2); details: 50 µM
Compound,cytotoxicity call [1],cytotoxicity call [2],growth inhibition call [3]
Cc1noc(C)c1NC(=O)Nc1ccc2c(c1)C(=O)N([C@H](C)CO)C[C@@H](C)[C@H](CN(C)Cc1ccc(Cl)c(Cl)c1)O2,inactive,inactive,inactive
COc1ccc(CNC(=O)C[C@@H]2C[C@@H]3c4cc(NC(=O)NC5CCCC5)ccc4O[C@@H]3[C@H](CO)O2)cc1,inactive,inactive,inactive
C[C@H](CO)N1C[C@H](C)[C@@H](CN(C)S(=O)(=O)c2cccc(F)c2)Oc2ncc(C#CC3CC3)cc2C1=O,inactive,inactive,inactive
Cc1ccnn1-c1ccc(CN)cc1,inactive,inactive,inactive
O=c1c2ccccc2oc2ccccc12,inactive,inactive,inactive
NCCn1nc([C@H]2CCN(C(=O)c3csc4c3CCCC4)C2)c2nccnc21,inactive,inactive,inactive
Cc1nc(N=Nc2cc(S(=O)(=O)O)c3cc([N+](=O)[O-])cc(S(=O)(=O)O)c3c2)c(COP(=O)(O)O)c(C=O)c1O,inactive,inactive,inactive
C[C@H](CO)N1C[C@H](C)[C@@H](CN(C)Cc2ccc(Oc3ccccc3)cc2)OCc2ccccc2-c2ccccc2C1=O,inactive,inactive,inactive
C[C@@H]1CCCCO[C@@H](CN(C)C(=O)Nc2ccc(C(F)(F)F)cc2)[C@H](C)CN([C@@H](C)CO)C(=O)c2cc(NC(=O)Cc3ccccc3)ccc2O1,inactive,inactive,inactive
Cc1noc(C)c1S(=O)(=O)N(C)C[C@@H]1Oc2ccc(NC(=O)Nc3ccc4c(c3)OCO4)cc2CC(=O)N([C@H](C)CO)C[C@H]1C,inactive,inactive,inactive
Cc1ccc(S(=O)(=O)Nc2ccc3c(c2)C(=O)N([C@H](C)CO)C[C@H](C)[C@H](CN(C)Cc2ccc(-c4ccccc4)cc2)O3)cc1,active,active,inactive
Cc1noc(C)c1S(=O)(=O)Nc1ccc2c(c1)C(=O)N([C@@H](C)CO)C[C@@H](C)[C@@H](CN(C)Cc1ccncc1)O2,inactive,inactive,inactive
CCC1C=C2C(=O)OC(=O)C2CC2=C(C(=O)OC2=O)C(OC(C)=O)C1CC (stereo not given),inactive,inactive,inactive
C[C@@H]1CN([C@@H](C)CO)C(=O)Cc2cc(NC(=O)Cn3cnnn3)ccc2O[C@@H]1CN(C)Cc1ccc2c(c1)OCO2,inactive,inactive,inactive
CC(C)(C)NC(=O)C1CCC2C3CCC4NC(=O)C=CC4(C)C3CCC12C (stereo not given),inactive,inactive,inactive
O=C(NO)c1ccc(-c2cn(CC[C@@H]3OC(=O)[C@H](Cc4ccccc4)N4CC5=CC(=O)[C@H](C6CC6)[C@H]5[C@H]34)nn2)s1,inactive,inactive,inactive
C[C@H](CO)N1C[C@H](C)[C@@H](CN(C)C(=O)c2ccncc2)OCCCC[C@H](C)Oc2ccc(NS(=O)(=O)c3cn(C)cn3)cc2C1=O,inactive,inactive,inactive
C[C@@H]1CCCCO[C@@H](CN(C)C(=O)c2ccccc2)[C@@H](C)CN([C@H](C)CO)C(=O)c2cc(NC(=O)Nc3cccc4ccccc34)ccc2O1,inactive,inactive,inactive
COc1ccc(NC(=O)N(C)C[C@H]2Oc3ccc(NC(=O)C4CC4)cc3CC(=O)N([C@H](C)CO)C[C@H]2C)cc1,inactive,inactive,inactive
C[C@H]1CN([C@@H](C)CO)C(=O)Cc2cc(NC(=O)Nc3ccccc3)ccc2O[C@H]1CN(C)S(=O)(=O)c1cn(C)cn1,inactive,inactive,inactive
C[C@@H]1CN([C@@H](C)CO)C(=O)CCCn2nncc2CO[C@@H]1CN(C)C(=O)Nc1ccc(N2CCN(C)CC2)cc1,inactive,inactive,inactive
Cc1noc(C)c1S(=O)(=O)Nc1cccc2c1O[C@@H](CN(C)Cc1ccc(-c3ccccc3)cc1)[C@@H](C)CN([C@H](C)CO)C2=O,inactive,inactive,inactive
COc1ccc(S(=O)(=O)N(C)C[C@H]2Oc3c(NS(=O)(=O)c4ccc(F)cc4)cccc3C(=O)N([C@@H](C)CO)C[C@H]2C)cc1,inactive,inactive,inactive
Cc1ccc(-c2ccc3c(c2)O[C@H](CN(C)C(=O)CN(C)C)[C@H](C)CN([C@@H](C)CO)S3(=O)=O)cc1,inactive,inactive,inactive
COc1ccc(CN(C)C[C@H]2Oc3c(NC(=O)Nc4ccc(C(F)(F)F)cc4)cccc3C(=O)N([C@H](C)CO)C[C@H]2C)cc1,inactive,inactive,inactive

# — the antibiotic and cytotoxicity screens of Wong et al. (2023)
